Where “and” joins values, the source holds several entries; their conditions need not be identical. Equal entries are not always repeated. Out of some 420,000 compounds screened, about 50,000 (12%) were called active. Inconclusive means that the source gave no clear call. Such entries were picked first, then a sample of the others. Calls follow the shape of the dose curve; as a rule, active = well fitted inhibition curve with a large enough effect; inconclusive = small, poorly fitted or top-dose-only effect; inactive = flat fitted curve, though single readings scatter. No potency is given beside an inconclusive call; the fits are too rough.
experiment: qHTS for Inhibitors of human tyrosyl-DNA phosphodiesterase 1 (TDP1): qHTS in cells in presence of CPT; conditions: chicken DT40 Tdp1-/-;hTDP1 cells + 20 nM CPT, ATP luminescence, 48 h; series mostly up to 46.2 µM; also: nearly all actives have a fitted effect of over 55% in size
How it was run: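 Chicken DT40 Tdp1-/- cells complemented with human TDP1, 400 cells/well, exposed to compounds plus 20 nM camptothecin for at least 48 h at 37 C; viability read as ATP content by CellTiter-Glo luminescence.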
Potency is read from the fitted curve at half-maximal effect; tags tell the direction and shape of the fitted curve.

Question: For `CCOc1ccccc1N=C1SC(CC(=O)Nc2ccc(OC)cc2OC)C(=O)N1CCC1=CCCCC1` (configuration not stated), which Potency is on record?
Answer: Its Potency is inconclusive [inhibitor, single point].

Question: For `COc1ccc(C(=O)/C=C/c2ccc(OC)c(O)c2)c(F)c1`, which Potency is on record?
Answer: Its Potency is inconclusive [inhibitor, single point].

Question: With `COc1ccc(/C=N/Nc2nc3ccccc3[nH]2)c(OC)c1OC` as the molecule, how does the Potency read?
Answer: The Potency was inconclusive [inhibitor, single point].

Question: Which Potency does the source give for `Cc1c2cnn(CC(=O)NCCc3ccccc3)c(=O)c2c(C)n1Cc1ccccc1` here?
Answer: The Potency was inconclusive [inhibitor, single point].

Question: With `CCCc1cc(C(N)=O)c(NC(=O)c2cc(C)on2)s1` as the molecule, how does the Potency read?
Answer: Its Potency is inconclusive [inhibitor, single point].

Question: For `CC(=O)Nc1ccc(-c2cc(N)n(-c3ccccc3)n2)cc1`, which Potency is on record?
Answer: Its Potency is “inactive”.

Question: Which Potency does the source give for `COc1ccc(N2CCN(C(=O)CCSCc3ccccc3F)CC2)cc1` here?
Answer: The Potency was inconclusive [inhibitor, single point].

Question: With `CC[C@]1(O)C[C@H]2CN(CCc3c([nH]c4ccccc34)[C@@](C(=O)OC)(c3cc4c(cc3OC)N(C=O)[C@H]3[C@@](O)(C(=O)OC)[C@H](OC(C)=O)[C@]5(CC)C=CCN6CC[C@]43[C@@H]65)C2)C1` as the molecule, how does the Potency read?
Answer: The Potency was active: 126 nM and active: 237 nM.

Question: For `COc1ccc(C(=O)NC2CC2)cc1OC1CCN(Cc2ccc(Cl)cc2)CC1`, which Potency is on record?
Answer: Its Potency is inconclusive [inhibitor, single point].

Question: For `CCCCn1c(-c2ccc(OC(F)F)cc2)nc2c1c(=O)[nH]c(=O)n2CC(C)C`, which Potency is on record?
Answer: The Potency was active: 20.6 µM.

Question: For `O=c1c(=Nc2ccccc2O)c(=O)c2ccccc12`, which Potency is on record?
Answer: The Potency was active: 7.31 µM.

Question: For `COCCCNC(=O)c1oc2ccc(S(=O)(=O)N(C)C3CCCCC3)cc2c1C`, which Potency is on record?
Answer: The Potency was inconclusive [inhibitor, partial curve].

Question: For `Fc1ccc(-c2noc3ncnc(NC4CCCCC4)c23)cc1`, which Potency is on record?
Answer: The Potency was inconclusive [inhibitor, partial curve, poor fit].

Question: Which Potency does the source give for `COc1ccc(Br)cc1C(=O)NC(=S)Nc1cc(-c2nc3ccccc3[nH]2)ccc1C` here?
Answer: The Potency was inconclusive [inhibitor, single point].

Question: With `CCC1CCCCN1C(=O)c1noc(C(C)C)c1[N+](=O)[O-]` (configuration not stated) as the molecule, how does the Potency read?
Answer: The Potency was inconclusive [inhibitor, partial curve].

Question: Which Potency does the source give for `COc1cc2c(cc1NC(=O)C1CCCO1)oc1ccccc12` (configuration not stated) here?
Answer: The Potency was inconclusive [inhibitor, single point].

Question: With `CCC(C)(C)NC(=O)C(c1cccc(OC)c1OC)N(Cc1ccc(OC)cc1)C(=O)CCC(=O)Nc1cc(C)on1` (configuration not stated) as the molecule, how does the Potency read?
Answer: The Potency was inconclusive [inhibitor, single point].
